Measurements reported in PubChem BioAssay AID488969 (Vanderbilt High Throughput Screening Facility, 2010).
In all, about 110,000 compounds were measured (“z-score”: median about -0.1, highest 2% from about 2 on). This is one part of the list.

target: Metabotropic glutamate receptor 8 (Rattus norvegicus) (UniProt P70579); test: mGluR8 Gi/Go-coupled signaling modulation – cell-based, rat, thallium flux, HTS, primary screen (AID 488969); conditions: HEK293 rat mGluR8, GIRK (G protein-gated inwardly rectifying potassium channel) thallium flux, FluoZin2; at 10 µM; stronger effect = higher value; submaximal glutamate (EC20) added with thallium
Chain of UniProt P70579 (P70579 whole entry, looked up): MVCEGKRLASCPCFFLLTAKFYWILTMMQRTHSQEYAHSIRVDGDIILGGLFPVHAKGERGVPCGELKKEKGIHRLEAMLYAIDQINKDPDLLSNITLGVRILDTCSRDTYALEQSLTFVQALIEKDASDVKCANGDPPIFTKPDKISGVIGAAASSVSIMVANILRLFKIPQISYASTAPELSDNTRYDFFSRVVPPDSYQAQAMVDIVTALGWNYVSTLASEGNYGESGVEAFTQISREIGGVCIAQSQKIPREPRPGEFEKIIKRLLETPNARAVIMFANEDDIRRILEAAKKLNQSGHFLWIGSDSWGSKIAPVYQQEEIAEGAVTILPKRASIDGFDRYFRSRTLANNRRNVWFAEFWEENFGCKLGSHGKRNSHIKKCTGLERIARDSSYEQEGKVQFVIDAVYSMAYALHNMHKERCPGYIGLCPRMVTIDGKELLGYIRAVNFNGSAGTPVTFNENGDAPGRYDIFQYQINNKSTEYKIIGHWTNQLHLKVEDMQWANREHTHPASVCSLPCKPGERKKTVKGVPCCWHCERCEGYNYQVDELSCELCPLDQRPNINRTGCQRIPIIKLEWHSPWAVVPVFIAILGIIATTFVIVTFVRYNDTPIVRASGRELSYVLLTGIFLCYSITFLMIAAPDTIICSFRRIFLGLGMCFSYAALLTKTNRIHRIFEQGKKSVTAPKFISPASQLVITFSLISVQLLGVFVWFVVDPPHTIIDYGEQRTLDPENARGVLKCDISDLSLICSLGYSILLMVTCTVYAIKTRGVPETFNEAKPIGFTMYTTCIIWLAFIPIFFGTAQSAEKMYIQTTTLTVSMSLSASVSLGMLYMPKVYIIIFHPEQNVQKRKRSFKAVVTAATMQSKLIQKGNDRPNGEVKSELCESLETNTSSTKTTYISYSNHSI

Compared with `O=C(c1cccc(F)c1)N1CCN=C1SCc1cccnc1`, `CCn1c(=O)c(=O)[nH]c2cc(C(=O)N3CCN(c4ccccc4F)CC3)ccc21` is lower in z-score: 0.324 for the first, -1.25 for the second.

Going from `CS(=O)(=O)N(Cc1ccccc1)c1ccccc1C(=O)N1CCN(c2ccccc2)CC1` to `COc1ccc(N2CCN(C(=O)COc3ccc(Cl)cc3Cl)CC2)cc1`, the z-score rises from -0.198 to 0.0278.

Compared with `Cc1cccc(C)c1-n1c(C)cc(/C=C2\C(=O)NN(c3ccccc3)C2=O)c1C`, `Cc1cccc(N2C(=O)c3cccnc3C2=O)c1` is higher in z-score: -0.192 for the first, -0.144 for the second.

Going from `C=CCN1C(=O)C(CC(=O)Nc2ccccc2)SC1=Nc1ccc(S(N)(=O)=O)cc1` (stereo unspecified) to `CCOc1ccc(NC(=O)c2sc(N3CCOCC3)nc2-c2ccccc2)cc1`, the z-score rises from -0.289 to 0.00027.

Going from `CCCc1oc(C(=O)O)cc1CN1CCOCC1` to `CCC1CCCCN1CCn1c(=S)[nH]c2cc(OC)c(OC)cc2c1=O` (stereo unspecified), the z-score rises from -0.0388 to 2.07.

Going from `CCCCNC(=S)NNC(=O)c1ccoc1C` to `Cc1cccc(C(=O)NC(=S)NNC(=O)Cc2ccccc2)c1`, the z-score rises from -0.0127 to 1.8.

First: COc1ccc(CCN2C(=O)CC(N3CCN(c4ccccn4)CC3)C2=O)cc1OC (stereo unspecified)
Second: COc1ccc(CCNC(=O)C(=O)NCc2ccccc2)cc1OC
The z-score of the first is lower: -0.121 for the first, -0.0128 for the second.

Going from `O=C(NNS(=O)(=O)c1ccc(F)cc1F)C1Cc2c(ccc3ccccc23)O1` (stereo unspecified) to `O=C1CC(c2ccc(Cl)c([N+](=O)[O-])c2)c2ccc3ccccc3c2N1` (stereo unspecified), the z-score falls from 0.0656 to -0.142.

Compared with `CN1/C(=C/C(=O)c2ccc(Cl)cc2)Sc2cc3c(cc21)OCO3`, `CCN1/C(=C\C(C)=O)Sc2ccc(OC)cc21` is higher in z-score: -1.93 for the first, 0.974 for the second.

Going from `CCOC(=O)C(C)n1nc(/C=C/c2ccccc2)ccc1=O` (stereo unspecified) to `Cc1cc(C)n2nc(SCC(=O)N3CCc4ccccc43)nc2n1`, the z-score rises from -0.174 to 0.255.

Going from `COc1ccc(/C=N/NC2=NCCCCC2)cc1` to `COc1ccc(OCCN2C(=O)NC(C)(c3ccc(C)cc3)C2=O)cc1` (stereo unspecified), the z-score falls from -0.00887 to -0.361.

Compared with `Cc1noc(C)c1C(=O)Nc1nc(C23CC4CC(CC(C4)C2)C3)cs1`, `COC(=O)c1c(NC(C)=O)sc2c1CCCC2` is higher in z-score: -0.213 for the first, -0.117 for the second.

Going from `COc1ccccc1OCC(=O)Nc1cc(Cl)ccc1Oc1ccccc1` to `COc1cccc(C(=O)CSc2nnc(CNc3nc(-c4ccccc4)cs3)n2C)c1`, the z-score falls from 1.03 to -0.0511.

First: Cc1ccnc(SCC(=O)O)n1
Second: COc1ccc(C2C(C(=O)c3cccs3)=C(O)C(=O)N2c2nncs2)cc1 (stereo unspecified)
The z-score of the first is higher: 0.319 for the first, -0.0675 for the second.

First: CC(=O)NC(Cc1cccc(C)c1)C(=O)NC1CCN(C(=O)c2ccc([N+](=O)[O-])cc2)CC1 (stereo unspecified)
Second: CC(C)(C)n1nnnc1C(c1cccc(C#N)c1)N1CCCc2ccccc21 (stereo unspecified)
The z-score of the first is higher: 0.194 for the first, -0.782 for the second.

`CC(C)(C)OC(=O)NC(CCCCNC=O)C(=O)O` (stereo unspecified) showed a z-score of 0.0405.
